# Results published in PubChem BioAssay AID485344 (National Center for Advancing Translational Sciences (NCATS), 2010).
# The whole screen tested about 340,000 compounds, of which about 6,900 (2%) were called active. No stated cut-off is given here; in the data, active means inhibition above about 30%; inactive means below that, where a call was filed. The entries are a selection whose mix differs from that of the whole data set. Entries without a call were filed so in the source. The source holds several records for some structures; these can differ, active in one and inactive in another.
# Target: D(2) dopamine receptor (Homo sapiens) (UniProt P14416)
# Sequence of UniProt P14416 (P14416 whole entry, looked up): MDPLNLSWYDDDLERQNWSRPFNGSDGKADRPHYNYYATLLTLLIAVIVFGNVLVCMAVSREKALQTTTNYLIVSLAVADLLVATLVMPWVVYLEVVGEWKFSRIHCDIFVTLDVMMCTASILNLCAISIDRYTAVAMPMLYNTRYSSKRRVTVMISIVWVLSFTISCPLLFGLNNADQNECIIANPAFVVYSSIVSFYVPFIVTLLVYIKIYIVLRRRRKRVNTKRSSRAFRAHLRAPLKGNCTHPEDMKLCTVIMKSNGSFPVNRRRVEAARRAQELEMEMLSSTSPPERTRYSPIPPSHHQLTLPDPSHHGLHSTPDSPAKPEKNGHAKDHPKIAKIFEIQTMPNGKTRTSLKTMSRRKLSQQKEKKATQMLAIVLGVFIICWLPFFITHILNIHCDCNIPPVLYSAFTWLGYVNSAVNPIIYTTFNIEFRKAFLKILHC
# Assay: HTS Assay for Allosteric Antagonists of the Human D2 Dopamine Receptor: Primary Screen for Antagonists; further: 0% is about no effect
# Conditions: HEK293 TREx D2 cells, calcium flux, dopamine EC80; at 10 µM; stronger effect = higher value
# Method in brief: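 Calcium flux kinetic readout in an inducible HEK293 TREx D2 line plated overnight at 30 C. After 180 s compound exposure, an EC80 dopamine challenge follows with another 180 s kinetic read to detect antagonism.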
row,SMILES,inhibition
1,OC1(c2ccc(Br)cc2)CCN(Cc2cccc(Br)c2)CC1,active: 103%
2,C=C(C)Cn1c(SCC(=O)Nc2cccc(Cl)c2)nc2sc3c(c2c1=O)CCCC3,-5.29%
3,O=C(NCCS(=O)(=O)N1CCN(c2cccc(Cl)c2)CC1)c1cc(=O)c2ccccc2o1,-11.1%
4,CN1CCC(Oc2ccccc2Sc2ccccc2)CC1,active: 32.4%
5,CCn1c(CNC(=O)C23CC4CC(CC(C4)C2)C3)nnc1SCC(=O)Nc1ccc(F)cc1,2.22%
6,CCOC(=O)c1cc(NC(=O)c2ccc(OC)cc2)c(=O)n2c1oc1ccc(Cl)cc12,22.5%
7,CC1Cc2ccccc2N1C(=O)CSc1nnc(-c2cccc(Cl)c2)o1 (stereo not given),-10.5%
8,O=c1[nH]c2ccc(NCc3ccccc3F)cc2[nH]1,7.51%
9,O=C(CCc1ccccc1)NCc1ccc2c(c1)CCN2C(=O)c1ccc(Cl)cc1,-0.162%
10,CCOc1ccc(CCNC(=O)c2cc3c(=O)n(C)c4ccccc4c3n2C)cc1,20.7%
11,COc1ccc(/C=C/C(=O)Nc2ccc3nc(N4CCCCC4)cc(C)c3c2)cc1OC,-0.876%
12,COc1cc(NC(=O)c2ccc(-n3cnc4cccnc43)cc2)cc(OC)c1,13%
13,CC(C)c1ccc(Nc2c(-c3ccco3)nc3ccccn23)cc1,0.884%
14,O=c1c(Cc2ccc(F)cc2)c(O)ccn1CCc1ccccn1,active: 40.9%
15,Cc1ccc(S(=O)(=O)N(CC(=O)Nc2ccc3c(c2)OCO3)c2ccc(C)c(Cl)c2)cc1,-3.47%
16,CCOC(=O)c1ccc(NC(=O)CSc2nc3c([nH]c4ccccc43)c(=O)n2C)cc1,6.82%
17,Cc1cn2c(=O)cc(COc3ccccc3NC(=O)c3ccc(Cl)cc3)nc2s1,10.7%
18,Cc1ccc(NC(=O)C2CCC(CNS(=O)(=O)c3ccc4c(c3)CCCC(=O)N4)CC2)c(C)c1 (stereo not given),4.28%
19,Cc1ccc2oc(-c3ccc(Cl)c(NC(=O)c4ccc(OC(C)C)cc4)c3)nc2c1,2.58%
20,CCCCc1nc2ccccc2n1CC(=O)N(COCC)c1c(C)cccc1CC,-16.4%
21,CC1=Nc2ccc(C)cc2/C1=C/c1c(N)n2oc(C)cc2nc1=O,active: 60.6%
22,COC(=O)c1ccccc1NC(=O)Cn1c(=O)n(CCCC(=O)NCc2ccccc2OC)c(=O)c2ccccc21,1.23%
23,COc1ccc(-c2cc(=O)oc3c4c(ccc23)OCN(Cc2cccc(OC)c2)C4)cc1,4.65%
24,Cc1ccc(C)c(NC(=O)C(c2ccccc2)N2Cc3ccccc3C2=O)c1 (stereo not given),-11.8%

row,SMILES,inhibition
1,Cc1cc(C)cc(-n2ccn(CC(=O)Nc3ccccc3F)c(=O)c2=O)c1,-7.28%
2,CCOc1ccc(-n2nc(CO)c(C(=O)NCc3cccc(OC)c3)n2)cc1,1.91%
3,CC(=O)c1ccc(NC(=O)c2nc3nc(C)cc(C(F)F)n3n2)cc1,15.1%
4,O=C(CCC1N=C2c3ccccc3N=C(SCc3ccc(F)cc3)N2C1=O)NC1CCCCC1 (stereo not given),16%
5,COc1cc2cc(CNc3ccccc3)c(=O)n(CC(=O)Nc3cc(C)cc(C)c3)c2cc1OC,0.954%
6,COc1ccccc1NC(=O)C1CCN(c2cnccn2)CC1,23.6%
7,CC(=O)N1CCCc2cc(S(=O)(=O)N3CCN(c4cccc(C(F)(F)F)c4)CC3)ccc21,6.07%
8,CCN1/C(=C/c2ccc3cc(C)ccc3[n+]2CC)Sc2cc(C)ccc21,active: 34.5%
9,CC1CC(C)CN(CCCNC(=O)c2ccc3c(c2)NC(=O)C(N2CCCCC2)S3)C1 (stereo not given),active: 87.7%
10,CCN(CCN(C)C)C(=O)C1CCN(S(=O)(=O)c2c(C)noc2/C=C/c2ccccc2F)CC1,-26.1%
11,COC(=O)Cc1c(C)c2cc3c(c(C)c2oc1=O)OCN(CCc1ccc(OC)cc1)C3,16.6%
12,Cc1cc(C)c(NC(=O)Cn2nnc(-c3nc(-c4ccccc4)no3)c2N)c(C)c1,1.64%
13,CN(C)c1ncc(CN2CCC(CO)(CCCc3ccccc3)CC2)s1,active: 62.2%
14,Cc1cc(C)c2c(n1)SCCN2C(=O)Nc1ccc(C(=O)Nc2ccc(C(C)C)cc2)cc1,7.25%
15,O=C(Nc1c(Cl)cccc1Cl)c1cc(-c2cccc(O)c2)on1,18.2%
16,Cc1cccc(-c2c3c(=O)n(C)c(=O)n(C)c3c3cnc4ccccc4n23)c1,4.13%
17,COc1ccc(C2c3[nH]c4ccc(OC)cc4c3CCN2C(=O)Nc2ccccc2)cc1 (stereo not given),10.9%
18,CCC(=O)Nc1sc2c(c1C(=O)Nc1cccc(C)c1)CCCC2,-13.6%
19,Cc1ccc(NC(=O)Cn2cc(S(=O)(=O)c3ccccc3)c(=O)c3cc4c(cc32)OCO4)cc1,5.58%
20,COc1ccccc1Nc1nn2c(=O)c3ccc(C(=O)NC(C)c4ccccc4)cc3nc2s1 (stereo not given),3.16%
21,Cc1cccc(C(=O)Nc2ccc(OCc3cc(=O)n4c5c(sc4n3)CCCC5)cc2)c1,5.99%
22,C=CCC(CC=C)(CNC(=O)C(=O)Nc1ccc(C(=O)OCC)cc1)c1ccccc1,4.88%
23,O=C(CN(CCN1CCOCC1)C(=O)Cn1nnc(-c2ccc(F)cc2)n1)NC1CCCCC1,active: 70.6%
24,Cc1ccc(NC(=O)C(Cc2ccccc2)n2cccc2)cc1C (stereo not given),-1.12%

row,SMILES,inhibition
1,Cc1ccc(-c2nc3ccccn3c2Nc2ccc3c(c2)OCO3)o1,-4.22%
2,COc1ccc(-c2nn(-c3cccc([N+](=O)[O-])c3)c3c2cnc2cc4c(cc23)OCO4)cc1,3.95%
3,CC(C)c1ccc(Nc2nc3c(S(=O)(=O)c4ccc(Br)cc4)nnn3c3ccsc23)cc1,4.82%
4,CCCN(C(=O)c1cc2c(s1)-c1c(C)cccc1OC2)c1ccc(OCC)cc1,-2.67%
5,CCOC(=O)c1cc(-c2ccc(C)cc2)n(CC(=O)NC2CCCCCC2)c1C,-0.596%
6,CCSc1nnnn1-c1cccc(C(=O)O)c1,-5.62%
7,Cc1cc2nc(-c3cccc(NC(=O)CSc4ccc(Cl)cc4)c3)oc2cc1C,1.3%
8,Cc1ccc(CNC(=O)c2cccc(-n3cnc4cccnc43)c2)cc1,4.73%
9,COc1ccc(OCc2cc(C(=O)N(C)CCC3CCOCC3)no2)c(Cl)c1,active: 65.2%
10,CCc1ccc(NC(=O)CCNS(=O)(=O)c2ccc3c(c2)CCCC(=O)N3)cc1,-4.08%
11,COc1cccc(C(=O)Nc2c3c(nn2-c2ccc(Cl)cc2)CS(=O)(=O)C3)c1,15.6%
12,CCOC(=O)c1scc(-c2ccccc2)c1S(=O)(=O)N1CCN(c2ccccc2OC)CC1,5.76%
13,COc1ccc(NC(=O)c2oc3ccc(S(=O)(=O)N(C)C4CCCCC4)cc3c2C)cc1,0.134%
14,Cc1ccc(CNC(=O)CSc2nc3n[nH]c(C)c3c(=N)n2-c2cccc(C)c2)cc1,11.6%
15,CCOc1ccc(NC(=O)Cn2cc(S(=O)(=O)N3CCN(c4ccccc4F)CC3)c3ccccc3c2=O)cc1,6.22%
16,O=C(NCCc1csc2nc(-c3cccc(F)c3)nn12)c1ccc(Br)o1,-12.6%
17,COc1ccc(N(CC(=O)N2CCN(c3ccc(F)cc3)CC2)S(=O)(=O)c2c(C)n[nH]c2C)cc1,1.1%
18,COc1ccc(-c2noc(-c3ccc(N4CCC(C)CC4)c([N+](=O)[O-])c3)n2)cc1OC,-10.9%
19,CCCCNc1nc2c(c(=O)n(Cc3ccc(Cl)c(Cl)c3)c(=O)n2C)n1C,-0.463%
20,CCOc1ccc(CCNC(=O)CCN2N=C(c3ccc(OC)cc3)CCC2=O)cc1OCC,1.11%
21,COc1ccc(N2CCN(C(=O)c3cc(NS(=O)(=O)c4ccc(F)cc4)ccn3)CC2)cc1,-8.52%
22,CCOc1ccc2[nH]c(=O)c(CN(CCO)C(c3nnnn3C3CCCCC3)C(C)C)cc2c1 (stereo not given),active: 34.8%
23,Cc1ccc(C)c(NC(=O)CSc2ncc3c(n2)-c2cc(Cl)ccc2N(Cc2ccccc2F)S3(=O)=O)c1,-4.23%
24,Cc1ccc(C)c(N2CCN(C(=O)CCn3c(=O)[nH]c4ccccc4c3=O)CC2)c1,-8.77%

row,SMILES,inhibition
1,CCCSCCCNC(=O)c1cc2n(n1)CCCN(Cc1ccc(C)cc1)C2=O,-1.84%
2,COc1ccc(Cn2ccc3nc(C)c(C(=O)NCc4ccc(C)cc4)cc3c2=O)cc1,6.43%
3,CC1(C)CC(=O)c2cc(-c3nc(-c4ccc(Cl)cc4)cs3)c(=O)n(-c3ccc(F)cc3)c2C1,21%
4,Cc1cc(Cl)ccc1NC(=O)CCn1nc(C)c2c(C)n(-c3ccccc3)nc2c1=O,2.15%
5,O=C(CCC1N=C2c3ccccc3N=C(SCc3ccccc3Cl)N2C1=O)N1CCN(c2ccccc2)CC1 (stereo not given),4.06%
6,COC(=O)c1ccc(NC(=O)c2cccc3c2C(=O)N(C2CCCCC2)C3)cc1,4.09%
7,COC(=O)CC1Oc2ccc(C)cc2-n2cc(-c3ccc(F)cc3)nc21 (stereo not given),3.64%
8,Cc1noc2ncnc(N3CCN(c4ccccc4F)CC3)c12,-9.07%
9,COC(=O)c1ccc(C(=O)Nc2ccc(-c3nc4cc(NC(=O)c5ccc(C(=O)OC)cc5)ccc4o3)cc2)cc1,4.82%
10,COc1ccc(CN(Cc2ccco2)c2cnc(S(C)(=O)=O)nc2C(=O)Nc2ccc(C)c(C)c2)cc1,-2.01%
11,Cc1ccc(Cl)cc1NC(=O)Cn1cc2c(n1)CCCCC2,-0.573%
12,CCSc1ncc(Cl)c(C(=O)Nc2ccc(S(=O)(=O)Nc3nccc(C)n3)cc2)n1,-12%
13,Cc1cccc(C)c1OCCn1c(C2CC(=O)N(Cc3ccc(F)cc3)C2)nc2ccccc21 (stereo not given),-4.61%
14,CCCCNCC1CCCO1 (stereo not given),active: 69.6%
15,O=C(CCS(=O)(=O)c1cccc2nonc12)Nc1cccc(F)c1,9.07%
16,CC(C)NC(=O)CSc1nc2ccccc2c(=O)n1Cc1ccc(C(=O)NC(C)C)cc1,-10.4%
17,CC(CNC(=O)c1ccc2c(c1)nc1n2CCOC1)c1ccccc1 (stereo not given),5.01%
18,O=C(CSc1nc(=O)[nH]c2c1CCC2)NCc1ccc(Cl)cc1,24.4%
19,CC(Sc1nc2ccccc2[nH]1)C(=O)Nc1ccc2c(c1)OCCO2 (stereo not given),active: 65.8%
20,Cc1cc2c(cc3c(=O)n(CC(=O)NCc4ccccc4Br)ncn32)s1,-3.33%
21,CCc1c(C)nc2nncn2c1NCc1ccc(OC)cc1,9.37%
22,Cc1ccc(Cc2c(C)nc3c(-c4ccccc4)c(C)[nH]n3c2=O)cc1,7.86%
23,Cc1ccc(-n2nc(C)c3c(C(=O)O)cc(C)nc32)cc1,13.5%
